# Out of some 270,000 compounds screened, about 5,800 (2.1%) were called active. The inconclusive results got no clear call from the source; some entries with a clear call stand among them for comparison. Calls follow the shape of the dose curve; as a rule, active = well fitted inhibition curve with a large enough effect; inconclusive = small, poorly fitted or top-dose-only effect; inactive = flat fitted curve, though single readings scatter. Potencies of inconclusive entries are doubtful fits and often do not repeat. The source holds several records for some structures; these can differ, active in one and inactive in another.
# Target: Microtubule-associated protein tau (Homo sapiens) (UniProt P10636)
# Assay: qHTS for Inhibitors of Tau Fibril Formation, Thioflavin T Binding; also: nearly all actives have a fitted effect of over 55% in size
# Conditions: recombinant tau K18 P301L, heparin-induced fibrillization, ThT fluorescence; series mostly up to 57.4 µM; activity, negative = inhibition: at the top concentration
# Summary of the method: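 ThT emission at 510 nm, taken 1 hr after adding 30 uM dye, quantifies aggregates formed when 20 uM heparin acts on human tau K18 P301L for 6 hr at 37 C.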
# % is scaled to controls: 0 for no effect and ±100 for the full control effect; potency is read from the fitted curve at half-maximal effect; tags tell the direction and shape of the fitted curve.
# Sequence of UniProt P10636 (P10636 whole entry, looked up): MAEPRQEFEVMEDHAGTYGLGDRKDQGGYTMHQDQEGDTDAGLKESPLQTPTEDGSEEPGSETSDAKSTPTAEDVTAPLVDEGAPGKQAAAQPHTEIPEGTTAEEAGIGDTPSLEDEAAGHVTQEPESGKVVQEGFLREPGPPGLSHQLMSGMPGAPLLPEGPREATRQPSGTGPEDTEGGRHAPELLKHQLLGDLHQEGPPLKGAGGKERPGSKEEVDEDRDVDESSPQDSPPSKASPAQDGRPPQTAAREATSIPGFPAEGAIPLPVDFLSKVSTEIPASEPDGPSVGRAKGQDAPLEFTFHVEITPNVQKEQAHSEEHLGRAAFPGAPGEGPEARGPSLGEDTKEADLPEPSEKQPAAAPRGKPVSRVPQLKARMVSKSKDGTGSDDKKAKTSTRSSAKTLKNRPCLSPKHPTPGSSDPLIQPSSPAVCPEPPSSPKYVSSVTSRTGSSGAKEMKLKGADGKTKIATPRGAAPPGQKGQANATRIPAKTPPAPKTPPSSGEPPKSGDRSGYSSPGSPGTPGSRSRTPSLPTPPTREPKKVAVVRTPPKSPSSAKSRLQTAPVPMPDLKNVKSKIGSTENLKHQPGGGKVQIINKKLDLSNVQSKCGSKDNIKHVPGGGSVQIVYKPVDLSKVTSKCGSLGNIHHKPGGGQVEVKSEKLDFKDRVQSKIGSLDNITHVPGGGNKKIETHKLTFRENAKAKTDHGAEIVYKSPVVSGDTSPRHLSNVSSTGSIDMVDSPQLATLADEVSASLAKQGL
Structure (SMILES),Potency,"activity, negative = inhibition"
Clc1ncccc1-c1nnn(-c2ccccc2)n1,"inconclusive: 31.6 µM [inhibitor, single point]",
O=C(NCc1ccccc1Cl)c1ccc2c(=O)n(CCCN3CCCC3=O)c(=S)[nH]c2c1,,inactive: -0.714%
O=C(CCN1CCN(c2ccccc2)CC1)Nc1ccc(OCc2ccccc2)cc1,"inconclusive: 0.501 µM [inhibitor, full curve]",
Cc1ccc(N/C=C2/Sc3ccccc3NC2=O)cc1,"inconclusive: 2.24 µM [inhibitor, full curve]",
C=CCn1c(SCc2ccccc2)nc2scc(-c3ccc(C)o3)c2c1=O,,inactive: -12.1%
COc1cccc(N2CC(NC(=O)COc3ccc4ccccc4c3)CC2=O)c1 (stereo unspecified),"inconclusive: 28.2 µM [inhibitor, single point]",
CC(=O)c1cccc(S(=O)(=O)N2CCCC(c3nc(-c4ccc(C)o4)no3)C2)c1 (stereo unspecified),"inconclusive: 39.8 µM [inhibitor, single point]",
O=C(N/N=C/c1ccc(Br)o1)/C(=C/c1ccc([N+](=O)[O-])cc1)NC(=O)c1ccccc1,"inconclusive: 15.8 µM [inhibitor, partial curve]",
Cn1cc(S(=O)(=O)c2ccccc2)c(=O)c2cc(F)c(N3CCCCC3)cc21,,inactive: 6.27%
NNC(=O)c1ccc(COc2ccc3ccccc3c2)cc1,"inconclusive: 1.78 µM [inhibitor, full curve]",
COc1ccc(OC)c(-c2noc(CSc3nnc(Cc4ccccc4)n3-c3cccc(C)c3)n2)c1,,inactive: -16.7%
CCOC(=O)Cc1c(C)nc2c(-c3ccc(Cl)cc3)cnn2c1C,"inconclusive: 17.8 µM [inhibitor, partial curve]",
CN1[C@H](Cc2ccccc2)C=C[C@]1(C)C(=O)NCC1CC1,"inconclusive: 39.8 µM [inhibitor, single point]",
Cc1cc(-c2ccc(Br)s2)nc(-n2cccc2)n1,"inconclusive: 39.8 µM [inhibitor, single point]",
CCOc1ccc(-c2ccc(SCC(=O)Nc3nnc(C)s3)nn2)cc1,"inconclusive: 0.631 µM [inhibitor, partial curve]",
Cc1ccc(C(c2c(O)nc3n(c2=O)CCS3)c2c(O)nc3n(c2=O)CCS3)cc1,,inactive: -16.9%
CCOc1ccc(C(=O)CC(Sc2ccc(C)cc2)C(=O)O)cc1 (stereo unspecified),"inconclusive: 17.8 µM [inhibitor, partial curve]",
COc1ccc(OC)c(NC(=O)c2cc3sccc3n2C)c1,"inconclusive: 22.4 µM [inhibitor, single point]",
N/C(Cc1ccc(Cl)cc1)=N\OC(=O)c1cccc2ccccc12,,inactive: -20.1%
Cc1nc(Nc2ccccc2)sc1C(=O)Nc1ccccc1,"inconclusive: 3.16 µM [inhibitor, full curve]",
O=C(Nc1ccc(Cl)c(Cl)c1)N1CCC(c2ccccc2)C1 (stereo unspecified),"inconclusive: 3.16 µM [inhibitor, full curve, poor fit]",
COc1cc(C2C(C(=O)N3CCOCC3)=C(C)NC3=C2C(=O)CCC3)ccc1OC(C)=O (stereo unspecified),,inactive: -1.34%

Structure (SMILES),Potency,"activity, negative = inhibition"
Cc1cccc(NC(=S)NC(=O)/C=C/c2ccco2)c1,"inconclusive: 25.1 µM [inhibitor, partial curve]",
COc1ccc(Br)cc1CNC(=O)CN1CCSc2ccccc21,"inconclusive: 17.8 µM [inhibitor, single point]",
NC(=O)c1ccc(NCC2COc3ccccc3O2)c([N+](=O)[O-])c1 (stereo unspecified),"inconclusive: 14.1 µM [inhibitor, partial curve]",
Cc1ccc(S(=O)(=O)c2c(N)n(/N=C/c3ccco3)c3nc4ccccc4nc23)cc1C,active: 15.8 µM,
COc1ccc(N2C=C3C(=O)C(C)(OC(=O)C4CCCC4)C(=O)C=C3C=C2c2ccsc2)cc1 (stereo unspecified),,inactive: 12.5% [at 11.5 µM]
CON1C(=O)C(=O)N(OC)C(C)(C)C1(C)C,,inactive: -1.35%
CC(C)CCNC(=O)CSCc1cnn(-c2ccccc2)c1-n1cccc1,"inconclusive: 25.1 µM [inhibitor, partial curve]",
O=C(NCc1ccccc1)c1cccc(COc2cc(Cl)ccc2Cl)c1,,inactive: -10.5%
CCCNC(=O)OC[C@H]1O[C@H](CCO/N=C/[C@@H](OC)[C@H](C)/C=C/CC(=O)OC)C=C[C@@H]1Oc1ccc(OC)cc1,"inconclusive: 28.2 µM [inhibitor, single point]",
CN(CC(=O)O/N=C(\N)c1ccc([N+](=O)[O-])cc1)S(=O)(=O)c1ccccc1,"inconclusive: 22.4 µM [inhibitor, partial curve]",
COc1ccccc1N1CCN(C(=O)CSc2nc3ncnc(N)c3[nH]2)CC1,,inactive: -2.7%
CSc1nnc(-c2cccc(NC(=O)c3ccccc3)c2)n1C,,inactive: -13.1%
COc1ccc(C2=NN3C(C2)c2ccccc2OC32C(=O)N(C)c3ccccc32)cc1 (stereo unspecified),"inconclusive: 10 µM [inhibitor, partial curve]",
Cc1ccc2oc(-c3ccc(Cl)c(NC(=O)c4ccc(-c5ccccc5[N+](=O)[O-])o4)c3)nc2c1,,inactive: -15.5%
CCN1CCN(c2cc(C)c3cc(NC(=S)N4CC(C)CC(C)C4)ccc3n2)CC1 (stereo unspecified),"inconclusive: 15.8 µM [inhibitor, partial curve]",
COc1ccc(OC)c2c(C)cc(C)nc12,"inconclusive: 6.31 µM [inhibitor, single point]",
COc1nnc(-c2ccc(N3CCOCC3)c(NC(=O)c3ccco3)c2)c2ccccc12,"inconclusive: 39.8 µM [inhibitor, single point]",
O=C(Nc1ccc(N2CCOCC2)cc1)c1cc2c(s1)CCCC2,"inconclusive: 4.47 µM [inhibitor, full curve]",
Cc1cccc(NC(=O)Cn2cc(C(=O)c3ccco3)c3ccccc32)c1C,"inconclusive: 7.94 µM [inhibitor, partial curve, poor fit]",
COc1ccc(C(=O)Oc2cc(N)n(S(=O)(=O)c3ccccc3)n2)cc1,"inconclusive: 12.6 µM [inhibitor, partial curve]",
CCCCC1=CC2=CC(=O)C(C)(OC(=O)CCc3ccccc3)C(=O)C2=CO1 (stereo unspecified),active: 25.1 µM,
CCOC(=O)NC(=O)CSc1nc(-c2ccc(C)c(C)c2)cn1-c1ccccc1,"inconclusive: 39.8 µM [inhibitor, single point]",

Structure (SMILES),Potency,"activity, negative = inhibition"
CCOC(=O)C1=C(C)NC(SCC(=O)Nc2nc(C)cs2)=C(C#N)C1c1cccs1 (stereo unspecified),"inconclusive: 22.4 µM [inhibitor, partial curve]",
N#C/C(=C/c1ccccc1[N+](=O)[O-])C(=O)NCc1ccco1,"inconclusive: 17.8 µM [inhibitor, single point]",
O=C(c1cc(-c2cccc(O)c2)on1)N1CCc2ccccc2C1,"inconclusive: 31.6 µM [inhibitor, single point]",
CC1=NN(c2ccc(Cl)c(C(=O)O)c2)C(=O)/C1=C\c1ccc(-c2ccc(C(=O)O)cc2)o1,"inconclusive: 14.1 µM [inhibitor, partial curve]",
CCCCc1nn2c(=O)cc(COC(=O)c3ccccc3NC(=O)c3ccccc3OC)nc2s1,"inconclusive: 20 µM [inhibitor, single point]",
COc1ccc2oc(=O)cc(CN3CCN(c4ccccc4F)CC3)c2c1,,inactive: 9.47%
COC(=O)c1ccc(OCCCCN2CC(C)OC(C)C2)cc1 (stereo unspecified),,inactive: -11.7%
CCCN1CCCc2cc(CN(CCCN3CCOCC3)C(=O)Nc3ccc(CC)cc3)ccc21,"inconclusive: 25.1 µM [inhibitor, partial curve]",
CCOC(=O)C1CCCN(C(=O)c2ccc3c(c2)N(Cc2ccccc2)C(=O)c2ccccc2S3=O)C1 (stereo unspecified),"inconclusive: 3.98 µM [inhibitor, single point]",
Cc1ccc2nc(C)/c(=N\O)c(C)nc2c1,"inconclusive: 35.5 µM [inhibitor, single point]",
COc1cc(C2CC(=O)Nc3c2c(=O)[nH]c2ncnn32)ccc1O (stereo unspecified),,inactive: -9.16%
Clc1ccc(OCCSc2ncccn2)c2ccccc12,"inconclusive: 20 µM [inhibitor, partial curve]",
CCSc1nnc(-c2ccc(C)cc2)c2ccccc12,"inconclusive: 25.1 µM [inhibitor, single point]",
CCOC(=O)c1cccc(Nc2ccc3cc(S(=O)(=O)N4CCCCC4)ccc3n2)c1,"inconclusive: 5.01 µM [activator, full curve]",
Cc1ccc(OCC(=O)Nc2ccc3nn(-c4ccc(Cl)cc4)nc3c2)cc1,"inconclusive: 20 µM [inhibitor, partial curve, poor fit]",
COc1ccc2c(c1)c(=O)oc1c(C)c(OCC(=O)N3CCc4ccccc4C3)ccc12,"inconclusive: 4.47 µM [inhibitor, single point]",
Cc1ccc(C)c(S(=O)(=O)N2CCC(c3nc4c(nnn4Cc4ccc(F)cc4)c(=O)[nH]3)CC2)c1,,inactive: -10%
Cc1cc(N2CCN(C)CC2)nc2ccc(NC(=S)N3CCN(c4ccc(Cl)cc4)CC3)cc12,"inconclusive: 14.1 µM [inhibitor, partial curve]",
Cc1ccc(OCC(=O)Nc2cccc(-c3nnc(-c4ccccc4)o3)c2)cc1,"inconclusive: 35.5 µM [inhibitor, single point]",
Cc1cccn2cc(COc3cccc([N+](=O)[O-])c3)nc12,"inconclusive: 17.8 µM [inhibitor, partial curve]",
O=C(Nc1ccc(F)c([N+](=O)[O-])c1)c1ccc2c(c1)OCCO2,"inconclusive: 7.08 µM [inhibitor, full curve]",
CN(C)S(=O)(=O)c1cccc(NC(=O)c2ccc(Sc3nncn3C)c([N+](=O)[O-])c2)c1,"inconclusive: 12.6 µM [inhibitor, partial curve]",
